Our source for the displacement values is PubChem BioAssay AID1240 (Sanford-Burnham Center for Chemical Genomics, 2008).

Molecules are shown by their SMILES. The campaign covered roughly 50,000 compounds. About 800 (1.6%) showed an effect of 50% or more. The list shows a part of the results.

The test concerns the target Bcl-2-like protein 10 (Homo sapiens) (UniProt Q9HD36). Briefly: TR3 peptide-Bcl-B binding displacers, biochemical primary FP assay, phenotype converters (AID 1240).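 Also: 0% = Bcl-B with tracer peptide and DMSO and 100% = tracer peptide lacking Bcl-B.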 The following applies: GST-Bcl-B / FITC-TR3 peptide fluorescence polarization; stronger effect = higher value; compound at 3.75 mg/L.
Chain of UniProt Q9HD36 (Q9HD36 whole entry, looked up): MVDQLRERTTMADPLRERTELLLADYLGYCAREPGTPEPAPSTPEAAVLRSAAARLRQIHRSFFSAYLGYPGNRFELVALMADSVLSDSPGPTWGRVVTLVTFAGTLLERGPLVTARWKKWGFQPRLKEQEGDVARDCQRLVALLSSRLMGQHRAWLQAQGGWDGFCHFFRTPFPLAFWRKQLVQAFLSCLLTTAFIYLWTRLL
As for `COc1ccccc1OCC(=O)NNC(=O)Cc1cccs1`, the displacement is -13.1%.

Consider `COc1cccc(C(=O)NCc2ccccc2OC)c1`, for which the displacement is -5.4%. On to `Cc1nnc(C)n1/N=C/c1cccc([N+](=O)[O-])c1`, for which the displacement was found to be 10.6%. On to `O=C1CS/C(=N\N=C\c2cn(Cc3ccc(Cl)cc3Cl)nc2-c2ccccc2)N1`, for which the displacement was -4.2%. The result for `COc1cc(C(=O)OCCN2CCOCC2)cc(OC)c1OC` reads -2.1%; that for `Cc1ccc(Cl)c(OCCCCNCCO)c1`, -9.3%.

Consider `CCN(CC)S(=O)(=O)c1cccc(C(=O)NC2CCCCC2)c1`, for which the displacement is -8%.

`CCOc1ccc(/C=N/Nc2nnc(-c3ccccc3)c(-c3ccccc3)n2)c(O)c1`: the displacement worked out at 3.7%. On to `COc1ccc(C(=O)NC2=NCCS2)cc1OC`, for which the displacement was found to be 19%.

For `COc1ccc(C(=O)c2ccc(N3CCOCC3)c([N+](=O)[O-])c2)cc1`, the displacement was -26%. The result for `O=C1OC(OC2CCCCC2)(c2ccccc2)c2ccccc21` (stereo unspecified) reads -0.9%; that for `NC(=O)c1ccc(NC(=O)Nc2cccc(Cl)c2)cc1`, -3.6%. On to `Cc1onc(-c2ccccc2)c1C(=O)N1CCN(c2c(Cl)cccc2[N+](=O)[O-])CC1`, for which the displacement was determined as 7.8%. As to `COc1cccc(OCCOc2c(Cl)cc(/C=C3/SC(=S)NC3=O)cc2OC)c1`, the displacement amounted to 0.8%. Consider `Cc1ccc(OCCOc2ccccc2C=O)cc1C`, for which the displacement was -5.7%.

With `CO/N=C(/C(=N/OC)c1ccccc1)c1ccccc1`, the displacement is -8%. For `O=C(CSCC(=O)Nc1ccc([N+](=O)[O-])cc1)Nc1ccccc1` the value was 10%; for `COC(=O)CN1C(=O)Nc2ccc(Br)cc2C1c1ccccc1` (stereo unspecified), -7.3%. The result for `CS(=O)(=O)N(Cc1ccc(Cl)cc1)c1ccc(C(=O)NC2CCCC2)cc1` reads 3.7%. For `COc1ccc2ccccc2c1C=Nc1ccccc1` the value was -9.1%; for `Cc1ccc(S(=O)(=O)N2CCN(CCN3C(=O)c4cccc5cccc(c45)C3=O)CC2)cc1[N+](=O)[O-]`, 1.9%; for `COc1ccc(NC(=O)c2ccccc2[N+](=O)[O-])c(OC)c1`, 13.2%. On to `C#CCn1cc(/C=C2\C(=O)NC(=O)N(c3ccc(Cl)cc3)C2=O)c2ccccc21`, for which the displacement worked out at 37.5%. Take `Cc1c(Cl)cccc1N=C1NC(=O)/C(=C/c2ccc(O)c([N+](=O)[O-])c2)S1`: the displacement worked out at 8.7%. Take `Cc1c(/C=C/c2nc3ccccc3c(=O)n2-c2ccc([N+](=O)[O-])cc2)c2ccccc2n1C`: the displacement worked out at 32.7%.

With `O=C(CSc1nc2ccc(N3C(=O)c4ccccc4C3=O)cc2s1)c1ccc(F)cc1`, the displacement came to 37.1%. `Cc1ccc(C(=O)Nc2nc3ccccc3n2C)cc1`: the displacement was found to be 4.6%.

On to `CCOC(=O)C(CCOc1ccc(C)c(C)c1)C(=O)OCC`, for which the displacement was -19.3%. For `COc1ccc(CP(=O)(c2ccccc2)c2ccccc2)cc1` the value was -1.3%; for `C=CCOc1ccc(C=C2C(=O)NC(=S)NC2=O)cc1`, 10.5%; for `Cc1ccc(NC(=O)CCC(=O)NCc2ccccc2)cc1C`, -13.9%.

Take `Cc1ccc(C(=O)Nc2ccc(N(C)C)cc2)cc1[N+](=O)[O-]`: the displacement was 7.6%. For `C=CCN1C(=O)NC(=O)C(=Cc2ccc(C(C)C)cc2)C1=O` the value was 9.3%; for `CCOC(=O)c1ccc(NC(=O)CN2C(=O)CCC2=O)cc1`, 10.7%. With `Cc1ccccc1/C=N/N1CCN(Cc2ccccc2Cl)CC1`, the displacement was 12.8%. As for `O=C(c1cccc(Br)c1)N1CCCCC1`, the displacement is 2.7%.

As to `O=C(COc1ccc([N+](=O)[O-])cc1)Nc1ccc(NC(=O)c2ccco2)cc1`, the displacement worked out at 0.4%.

Consider `C=CCN1C(=O)/C(=C\c2ccc(I)o2)C(=O)NC1=S`, for which the displacement is -40.9%. For `C/C(=C\C(=S)Nc1ccccc1)Nc1ccc(Cl)cc1` the value was -23.8%; for `COC(=O)COc1ccc(/C=C2\C(=O)NC(=S)N(c3ccc(C(C)C)cc3)C2=O)cc1OC`, -12%.

Regarding `Cc1cocc1C(=O)N1N=C(c2ccccc2)CC1(O)C(F)(F)F` (stereo unspecified), the displacement was -11.9%.

Turning to `CC(C)CC(=O)N1CCN(C2CCC(C)CC2)CC1` (stereo unspecified), the displacement stood at 3%. The result for `NNC(=O)CCNS(=O)(=O)c1ccc([N+](=O)[O-])cc1` reads -0.7%; that for `CC(=O)Nc1sc2c(c1C(N)=O)CCC(C)C2` (stereo unspecified), 10.6%. Consider `Cc1ccc(/C=C2/C=C(c3ccc(Br)cc3)OC2=O)o1`, for which the displacement is 21.3%. The result for `Cc1ccc2oc(-c3cc(NC(=O)C(C)C)ccc3O)nc2c1` reads 7.4%; that for `Cc1ccc(NCc2c(O)ccc3ccccc23)cc1`, 17.3%; that for `CCN(CC)CCn1c(=N)n(CC(=O)c2ccc(C)cc2)c2ccccc21`, 0.2%. `Oc1ccc(Br)cc1C=Nc1cccc2ccccc12`: the displacement amounted to 15.5%. The result for `O=C1C(=O)N(Cc2ccc(F)cc2)c2ccc(Br)cc21` reads 9%; that for `CN(C)c1ccc(/C=C/C(=O)c2cccc(Br)c2)cc1`, -37.5%. For `Cc1ccccc1N(CC(=O)O)S(C)(=O)=O`, the displacement is 8.8%. For `Cc1nn(CC(=O)Nc2ccc(O)cc2)c(=O)c2ccccc12` the value was -9.1%.

On to `O=C(/C=C/c1cccc([N+](=O)[O-])c1)Nc1ccc(-c2nc3ccccc3s2)c(O)c1`, for which the displacement is -5.1%. In the case of `Cc1[nH]n(-c2ccccc2)c(=O)c1C(c1ccc(C(F)(F)F)cc1)c1c(C)[nH]n(-c2ccccc2)c1=O`, the displacement was determined as 18.6%. Take `CCNC(=O)CCC(=O)Nc1cc(Cl)ccc1C`: the displacement worked out at 8.1%. The result for `CC(C)C(=O)N1CCN(c2ccc([N+](=O)[O-])cc2Cl)CC1` reads 4.5%; that for `COC(=O)C1=C(C)N(c2ccc(C)cc2)C(=O)/C1=C\c1ccc2c(c1)OCO2`, 107%.

On to `C=CCn1c(=S)[nH]c2scc(-c3ccc(C)cc3)c2c1=O`, for which the displacement is -4.4%. In the case of `CC(C)COc1ccc(C(=O)N/C(=C/c2ccccc2)C(=O)NCC(=O)OCc2ccccc2)cc1`, the displacement is 1.5%. For the compound `CC(=O)Nc1ccc2oc(-c3ccc(F)cc3Cl)nc2c1`, the displacement is -2%. For `O=C(Nc1ccc(O)c(-c2nc3ccccc3o2)c1)c1ccc(-c2ccc(Cl)cc2)o1` the value was 1.8%; for `O=C(O)C1C2CCC(C2)C1C(=O)NCc1cccs1` (stereo unspecified), -0.4%; for `Cc1ccc(C2CC(C(F)(F)F)n3ncc(C(=O)Nc4ccc(OC(F)(F)F)cc4)c3N2)cc1` (stereo unspecified), 6.1%.

As to `O=C(N/N=C/c1coc2ccccc2c1=O)c1cc(O)cc(O)c1`, the displacement was -5.8%. The result for `Cc1cc([N+](=O)[O-])ccc1NCc1cccc(C(F)(F)F)c1` reads 2.6%; that for `COC(=O)Oc1ccc(/C=C2/C(=O)N(c3ccccc3)N=C2C)cc1OC`, 6.5%; that for `O=C(Cc1ccc(F)cc1F)Nc1ccc(F)cc1F`, 10%. For `N#C/C(=C\c1ccc(-c2cccc(Cl)c2Cl)o1)C(=O)NCc1ccco1` the value was 37.2%; for `Cc1cc(NC(=O)c2cc(-c3ccc(C)o3)nc3ccccc23)no1`, 0.8%; for `COC(=O)c1ccc(C(=O)OC)c(NC(=O)COc2ccc(Cl)cc2C)c1`, 5.4%.
